According to patent publication US20250099474A1 (priority 2022, published 2025):

Test system: SARS-CoV-2
Assay: Phase 2/3 study, Phase 3 Part: SARS-CoV-2 viral RNA amount on Day 4
Format: in vivo, human
Conditions: for Change from baseline in SARS-CoV-2 viral RNA amount on Day 4: Difference of least mean square (vs placebo) / Change from baseline in SARS-CoV-2 viral RNA amount on Day 4: Least mean square (covariance analysis) / Change from baseline in SARS-CoV-2 viral RNA amount on Day 4: Maximum value / Change from baseline in SARS-CoV-2 viral RNA amount on Day 4: Mean value / Change from baseline in SARS-CoV-2 viral RNA amount on Day 4: Median value / Change from baseline in SARS-CoV-2 viral RNA amount on Day 4: Minimum value: mild/moderate patients
[1] = ITT population, 375/125 mg group
[2] = ITT, onset to randomization less than 72 hours, 375/125 mg group
[3] = ITT population, 750/250 mg group
[4] = ITT, onset to randomization less than 72 hours, 750/250 mg group

Structure (SMILES): Cn1cnc(Cn2c(=O)[nH]/c(=N\c3cc4cn(C)nc4cc3Cl)n(Cc3cc(F)c(F)cc3F)c2=O)n1 [(6E)-6-[(6-chloro-2-methyl-2H-indazol-5-yl)imino]-3-[(1-methyl-1H-1,2,4-triazol-3-yl)methyl]-1-[(2,4,5-trifluorophenyl)methyl]-1,3,5-triazinane-2,4-dione]
- Decrease of adjusted estimated value of the change from baseline in SARS-CoV-2 viral RNA amount on Day 4 as compared with placebo group [1]: 1.2 log10 (copies/mL)
- Decrease of adjusted estimated value of the change in SARS-CoV-2 viral RNA amount on Day 4 as compared with placebo group [2]: about 1.5 log10 (copies/mL)
- Change from baseline in SARS-CoV-2 viral RNA amount on Day 4: Difference of least mean square (vs placebo) [1]: −1.20 log10 copies/mL
- Change from baseline in SARS-CoV-2 viral RNA amount on Day 4: Least mean square (covariance analysis) [1]: −2.46 log10 copies/mL
- Change from baseline in SARS-CoV-2 viral RNA amount on Day 4: Maximum value [1]: 4.34 log10 copies/mL
- Change from baseline in SARS-CoV-2 viral RNA amount on Day 4: Mean value [1]: −2.646 log10 copies/mL
- Change from baseline in SARS-CoV-2 viral RNA amount on Day 4: Median value [1]: −2.695 log10 copies/mL
- Change from baseline in SARS-CoV-2 viral RNA amount on Day 4: Minimum value [1]: −5.71 log10 copies/mL
- Change from baseline in SARS-CoV-2 viral RNA amount on Day 4: Difference of least mean square (vs placebo) [3]: −1.20 log10 copies/mL
- Change from baseline in SARS-CoV-2 viral RNA amount on Day 4: Least mean square (covariance analysis) [3]: −2.46 log10 copies/mL
- Change from baseline in SARS-CoV-2 viral RNA amount on Day 4: Maximum value [3]: 1.01 log10 copies/mL
- Change from baseline in SARS-CoV-2 viral RNA amount on Day 4: Mean value [3]: −2.594 log10 copies/mL
- Change from baseline in SARS-CoV-2 viral RNA amount on Day 4: Median value [3]: −2.710 log10 copies/mL
- Change from baseline in SARS-CoV-2 viral RNA amount on Day 4: Minimum value [3]: −5.27 log10 copies/mL
- Change from baseline in SARS-CoV-2 viral RNA amount on Day 4: Difference of least mean square (vs placebo) [2]: −1.47 log10 copies/mL
- Change from baseline in SARS-CoV-2 viral RNA amount on Day 4: Least mean square (covariance analysis) [2]: −2.48 log10 copies/mL
- Change from baseline in SARS-CoV-2 viral RNA amount on Day 4: Maximum value [2]: 1.43 log10 copies/mL
- Change from baseline in SARS-CoV-2 viral RNA amount on Day 4: Mean value [2]: −2.737 log10 copies/mL
- Change from baseline in SARS-CoV-2 viral RNA amount on Day 4: Median value [2]: −2.775 log10 copies/mL
- Change from baseline in SARS-CoV-2 viral RNA amount on Day 4: Minimum value [2]: −5.71 log10 copies/mL
- Change from baseline in SARS-CoV-2 viral RNA amount on Day 4: Difference of least mean square (vs placebo) [4]: −1.48 log10 copies/mL
- Change from baseline in SARS-CoV-2 viral RNA amount on Day 4: Least mean square (covariance analysis) [4]: −2.49 log10 copies/mL
- Change from baseline in SARS-CoV-2 viral RNA amount on Day 4: Maximum value [4]: 0.33 log10 copies/mL
- Change from baseline in SARS-CoV-2 viral RNA amount on Day 4: Mean value [4]: −2.690 log10 copies/mL
- Change from baseline in SARS-CoV-2 viral RNA amount on Day 4: Median value [4]: −2.790 log10 copies/mL
- Change from baseline in SARS-CoV-2 viral RNA amount on Day 4: Minimum value [4]: −5.27 log10 copies/mL
